Measured values from the supplement of paper PMC3334620.
In all, about 33,000 sequences were measured (“E-score (-0.5 to 0.5)”: median about -0.016, highest 2% from about 0.31 on). Some of the results follow.

The sequences below were run against Cst6 (UniProt P40535) (assay: PBM E-score (8-mer binding enrichment) (E-score (-0.5 to 0.5)); higher = stronger / more preferred TF binding; most listed sequences are background and not binding sites). Details: protein concentration: 200 nM; construct: GST-DNA-binding domain.
Procedure, shortened: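 Each ungapped eight-base word and its reverse complement, pooled, received an E-score from the Universal PBM Analysis Suite. Underlying scans, normalised with masliner, recorded fluorescent anti-GST bound to GST-tagged yeast transcription factors. These were applied at about 100-200 nM to universal all-10-mer Agilent arrays double-stranded by primer extension.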

Sequence | PBM E-score
ATGCAAGG | -0.188
CCCTTTGA | -0.0711
GCCGCACA | 0.23
ATATAACC | 0.0717
AAACCTAG | -0.252
GCAGCCCA | -0.283
ACGCCGAT | 0.0638
AGCCAACT | -0.159
GAGCGTAA | 0.199
GGAAGACC | -0.392
AACTGATT | 0.0959
CACATAAG | -0.00296
GCAAAGGC | -0.126
CACCGGGA | -0.118
AGTATACT | -0.089
ATTAGAAA | 0.138
AATACGAA | 0.106
CATTTAGC | -0.0329
GTAGAAGA | -0.056
CCGCCCTA | -0.191
GAAGAGAC | -0.114
AACAGCTA | 0.00217
CACAACCC | -0.0948
AGCGTGCG | 0.105
CCATATAA | 0.105

Sequence | PBM E-score
AATCTGCT | 0.0692
AGGTTGCC | -0.183
AGGCACCT | -0.174
CCTGGCCC | -0.22
CTCAATCA | 0.0803
CTAAGTAA | 0.147
ACGTAACG | 0.39
AGCGCAAG | -0.163
CTCCGTCA | 0.222
AGTGGGTC | -0.224
TAATGATA | 0.387
GGTGCCAC | -0.226
AAAATGAT | 0.298
CTTTCCCA | -0.134
ACGCTCTA | -0.206
CGCTGCGA | 0.0077
AGCGTAAC | 0.186
GACGAGTC | -0.125
CCGTTACG | 0.238
AAAGTTGG | 0.0124
GCCCGCGC | -0.0241
AATCGTCA | 0.34
CAGGCAGG | -0.0868
CACCCCTG | -0.299
ACCGTAGG | -0.26

Sequence | PBM E-score
AATCGTGA | 0.0888
CGCGTTAA | -0.0164
CGGCGACG | 0.164
CCTATCCG | -0.206
AGAAAAGG | 0.0591
TACATACA | 0.167
GATGATAC | 0.127
ATAAACGG | 0.221
GCTAATAA | -0.0637
CGCGGTTA | 0.0396
ACGTTTTG | 0.138
GGCGAGCA | -0.214
GTCTAAAA | -0.0387
CCGGTGAG | -0.116
GGATTGCA | 0.0154
AAAGGTGA | -0.0439
GGGAGATA | -0.186
CCGATCGC | -0.0261
AGAGAATC | 0.067
CGAACACA | 0.00717
TCATCGAA | 0.21
AGTATGAT | 0.235
ATAAAAGC | 0.0835
AGTGGTTC | -0.139
TTACCAAA | 0.218

Sequence | PBM E-score
GATGAGGC | -0.171
ACGTCAGT | 0.472
GACGTATA | 0.322
CACGCCAA | 0.139
CACGTCGG | -0.176
CAATCGGA | -0.0214
CCTGTACG | -0.125
AGTGTCGG | -0.143
ATACTAAG | 0.0167
CCTTGCCA | -0.0783
GAATTCCC | -0.21
CCGAGAAA | 0.105
ATGCTGCC | 0.0106
ACTAGCAG | -0.118
CTGTAGTC | -0.19
AGCTCTAC | -0.186
CCAGCAGC | -0.176
AGGGTCAA | -0.0181
ATAAGTTA | 0.237
GGTAATAC | 0.111
AGCCCTTA | -0.223
GTCGTAAC | 0.095
ACCGATAA | 0.102
GAAGCGCA | -0.0838
GCCTCTAC | -0.211

Sequence | PBM E-score
ATGCATAG | -0.0354
CGCTAAGA | -0.0575
GCGTAAGC | 0.0902
CCGTGTAG | 0.0158
CAGCTATA | -0.0669
CGCGTGCA | -0.0887
CGAATCAA | 0.215
CTCAGTCC | -0.101
CAACCATA | 0.2
ATGCAACG | 0.0792
AGGTATGA | 0.115
ACAACGTC | 0.219
GGCTTCCA | -0.132
ATGATAAC | 0.263
GATGAGCC | -0.139
CACGGGTC | 0.141
CGCCCCTC | -0.142
GGATTCCA | 0.133
GACGGTAC | -0.00492
CACCATGA | 0.185
ATCACATA | 0.274
CAGATCTA | -0.129
CACATTCG | 0.0894
AGTCCACG | -0.102
ATTACCGA | 0.122

Sequence | PBM E-score
ATCGGTGA | 0.229
AGATTATC | 0.0114
AATGCTCA | -0.0154
AGCGAAGG | 0.00897
CCGTTATC | -0.00181
CTCCCTAA | -0.16
GACGGAGC | -0.0117
ACAATCAA | 0.149
CCCTAGCG | -0.333
AACGACAA | 0.153
AAATGATG | 0.332
CCGCTTTA | 0.0653
GCCCGAAA | 0.0285
ATAGATTA | 0.206
CATCGCAG | -0.135
GCCGTCCA | 0.151
AGACGCTG | -0.214
GGGTGTTA | -0.0706
ATGACCGC | 0.209
CTTTCCGA | -0.131
CGCGAACA | -0.00246
AATTGCTC | -0.0979
ACTGATCA | 0.136
GTACGCAC | -0.1
GAGTCCAA | -0.115

Sequence | PBM E-score
CCATCGTC | -0.0545
CACTGGTA | 0.0414
GGTACACC | -0.287
AATAGAAT | 0.133
ATCACTAG | 0.164
AATGTACT | 0.0583
CTAGTCCC | -0.241
CAACAGAC | -0.0113
TGACGGCA | 0.371
CAGAAAAC | 0.224
ACGGCTCG | 0.312
GTCAACAC | 0.227
CAGCTGTA | -0.172
CACCGGTA | 0.018
TATTCGAA | -0.0158
CTTACATC | 0.365
TACCGTGA | 0.0115
GAGACGGA | 0.0715
ACTGTCAA | 0.0674
CTTGAGTC | -0.172
ATAGAGCG | -0.122
ATGGTGCA | 0.0455
CTGACTTA | 0.0619
ACTTCTCT | -0.0203
AATTGCCC | -0.055

Sequence | PBM E-score
AGCAGGCT | -0.279
CCAGAACG | 0.0166
ACCGGTCA | -0.0152
ATCGCCCG | -0.195
GTCAGGCA | -0.0378
ACAAAGAG | -0.179
CAGTCGGC | -0.116
ATCTACGG | 0.0766
CGGATACG | 0.0365
CGCGGCAA | 0.134
CCTCGTAG | 0.0429
GTACTTGA | -0.168
ACTACATG | 0.151
ATTTCATA | 0.192
AGTTCGTG | -0.0346
CGTTGCTA | -0.00267
CTTAACGA | 0.0413
CGTGTTGA | 0.0872
AGCTATCG | -0.106
CCAGCCAA | -0.0768
AGCTCACT | 0.0289
AGAACACA | 0.0117
AGGTTAGC | -0.207
CTATGTGA | 0.0939
CGAACATA | 0.161

Sequence | PBM E-score
CAGTCAAG | -0.0974
GGATCCCA | -0.0683
GCACCTAC | -0.171
TAGACCAA | -0.0245
AGACATAG | -0.00262
TCAATGAA | 0.0774
ATTGCGCC | 0.0746
AGCGGCTA | 0.131
GGGGGGAC | -0.445
CCGCTGAG | -0.209
ACTTGGAC | -0.0298
ACCTTCTC | -0.161
ACCTGCCG | -0.111
CAGTGATG | 0.247
AAAAAATC | 0.23
AAGGTCGG | -0.139
AGCTTCTA | -0.186
AATAAGTG | 0.0718
ACACATCT | 0.024
